Positions count from the first letter of the chain named.
T1: IL2Rs (IL2Rgamma/IL2Rbeta) on preactivated human PBMCs / CD8+ T cells (human, UniProt P14784 27-551; P31785 23-369)
T1 sequence (looked up) 1: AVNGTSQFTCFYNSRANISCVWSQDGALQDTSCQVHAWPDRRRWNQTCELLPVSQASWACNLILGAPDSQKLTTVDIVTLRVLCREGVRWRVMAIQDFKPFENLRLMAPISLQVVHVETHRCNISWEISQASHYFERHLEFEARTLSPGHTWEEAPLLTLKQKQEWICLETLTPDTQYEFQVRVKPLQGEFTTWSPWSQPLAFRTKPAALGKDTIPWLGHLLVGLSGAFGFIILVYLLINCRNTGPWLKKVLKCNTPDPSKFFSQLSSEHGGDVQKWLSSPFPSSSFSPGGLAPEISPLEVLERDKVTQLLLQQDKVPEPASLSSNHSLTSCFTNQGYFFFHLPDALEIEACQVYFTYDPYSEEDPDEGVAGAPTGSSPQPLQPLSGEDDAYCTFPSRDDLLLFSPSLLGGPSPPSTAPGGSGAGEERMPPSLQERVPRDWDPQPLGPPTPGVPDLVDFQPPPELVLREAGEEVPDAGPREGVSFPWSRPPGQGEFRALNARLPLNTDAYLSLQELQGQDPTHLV
T1 sequence (looked up) 2: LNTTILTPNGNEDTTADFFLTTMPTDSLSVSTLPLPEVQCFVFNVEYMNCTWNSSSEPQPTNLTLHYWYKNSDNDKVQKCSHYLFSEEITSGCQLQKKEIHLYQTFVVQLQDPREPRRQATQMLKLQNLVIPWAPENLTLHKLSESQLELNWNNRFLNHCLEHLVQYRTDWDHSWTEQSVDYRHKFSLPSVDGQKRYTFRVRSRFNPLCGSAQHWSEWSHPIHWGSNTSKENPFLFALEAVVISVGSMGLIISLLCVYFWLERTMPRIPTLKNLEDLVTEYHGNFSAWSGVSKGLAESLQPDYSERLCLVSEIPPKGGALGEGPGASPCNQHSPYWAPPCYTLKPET

B1: TNRX-257 (other)
heavy 1: EVQLVESGGGVVRPGGSLRLSCCASGFTFDDYGMSWVRRAPGKGLEWVAGINWNGGSTGYADSVKGRFTISRDNEKNCLYLQMNSLRAEDTALYHCASATSGTAFDIWGQGTMVTVSSPPGGEVQLVQSGAEVKKPGACVKISCKVSGYTFTRYYMHWVQRAPGKGLEWIGLVDPEDGETIYAEKFQGRVTITADTSTDTAYMELCSLRSEDTAVYYCATDFVKLDFSLSFQHWGQGTLVTVSSPPGGQGQGGQGGGQGGGQVQLVESGGGVVQPGRSLRLSCAASGFTFSSYGMHWVRQAPGKGLEWVAVIWYDGSNKYYADSVKGRFTISRDNSKNTLYLQMNSLRAEDTAVYYCAREWAVASWDYGMDVWGQGTTVTVSSASTKGPSVFPLAPSSKSTSGGTAALGCLVKDYFPEPVTVSWNSGALTSGVHTFPAVLQSSGLYSLSSVVTVPSSSLGTQTYICNVNHKPSNTKVDKKVEPKSCDKTHTCPPCPAPEAAGGPSVFLFPPKPKDTLMISRTPEVTCVVVDVSHEDPEVKFNWYVDGVEVHNAKTKPREEQYNSTYRVVSVLTVLHQDWLNGKEYKCAVSNKALPAPIEKTISKAKGQPREPQVYTLPPSREEMTKNQVSLTCLVEGFYPSDIAVEWESNGQPENNYKTTPPVLDSDGSFFLYSDLTVDKSRWQQGNVFSCSVMHEALHNHYTQESLSLSPGK
heavy 2: QVQLVESGGGVVQPGRSLRLSCAASGFTFSSYGMHWVRQAPGKGLEWVAVIWYDGSNKYYADSVKGRFTISRDNSKNTLYLQMNSLRAEDTAVYYCAREWAVASWDYGMDVWGQGTTVTVSSASTKGPSVFPLAPSSKSTSGGTAALGCLVKDYFPEPVTVSWNSGALTSGVHTFPAVLQSSGLYSLSSVVTVPSSSLGTQTYICNVNHKPSNTKVDKKVEPKSCDKTHTCPPCPAPEAAGGPSVFLFPPKPKDTLMISRTPEVTCVVVDVSHEDPEVKFNWYVDGVEVHNAKTKPREEQYNSTYRVVSVLTVLHQDWLNGKEYKCAVSNKALPAPIEKTISKAKGQPREPQVYTLPPSRKKMTKNQVSLTCLVKGFYPSDIAVEWESNGQPENNYKTTPPVLKSDGSFFLYSKLTVDKSRWQQGNVFSCSVMHEALHNHYTQKSLSLSPGK
light: [not shown - about 100 residues][not shown - about 120 residues]
B2: TNRX-257_AA (other)
heavy 1: B1 heavy 1 with A588K
heavy 2: B1 heavy 2 with A327K
light: [not shown - about 100 residues][not shown - about 120 residues]
B3: TNRX-257_DS_N297G (other)
heavy 1: B1 heavy 1 with A500L, A501L, L508C, N563G, A588K, K600C
heavy 2: B1 heavy 2 with A239L, A240L, L247C, N302G, A327K, K339C
light: [not shown - about 100 residues][not shown - about 120 residues]
B4: TNRX-257_KH (other)
heavy 1: B1 heavy 1 with Y615C, T632W, E636K, D675K, E705K
heavy 2: B1 heavy 2 with S359C, K361E, K362E, T371S, L373A, K404D, Y412V
light: [not shown - about 100 residues][not shown - about 120 residues]
B5: TNRX-257_GS_KH (other)
heavy 1: B1 heavy 1 with Q249S, Q251G, Q254S, Q258G, G259S, Y615C, T632W, E636K, D675K, E705K
heavy 2: B1 heavy 2 with S359C, K361E, K362E, T371S, L373A, K404D, Y412V
light: [not shown - about 100 residues][not shown - about 120 residues]
B6: TNRX-257_GS_AA_KH (other)
heavy 1: EVQLVESGGGVVRPGGSLRLSCCASGFTFDDYGMSWVRRAPGKGLEWVAGINWNGGSTGYADSVKGRFTISRDNEKNCLYLQMNSLRAEDTALYHCASATSGTAFDIWGQGTMVTVSSPPGGEVQLVQSGAEVKKPGACVKISCKVSGYTFTRYYMHWVQRAPGKGLEWIGLVDPEDGETIYAEKFQGRVTITADTSTDTAYMELCSLRSEDTAVYYCATDFVKLDFSLSFQHWGQGTLVTVSSPPGGSGGGGSGGGGSGGQVQLVESGGGVVQPGRSLRLSCAASGFTFSSYGMHWVRQAPGKGLEWVAVIWYDGSNKYYADSVKGRFTISRDNSKNTLYLQMNSLRAEDTAVYYCAREWAVASWDYGMDVWGQGTTVTVSSASTKGPSVFPLAPSSKSTSGGTAALGCLVKDYFPEPVTVSWNSGALTSGVHTFPAVLQSSGLYSLSSVVTVPSSSLGTQTYICNVNHKPSNTKVDKKVEPKSCDKTHTCPPCPAPEAAGGPSVFLFPPKPKDTLMISRTPEVTCVVVDVSHEDPEVKFNWYVDGVEVHNAKTKPREEQYNSTYRVVSVLTVLHQDWLNGKEYKCKVSNKALPAPIEKTISKAKGQPREPQVCTLPPSREEMTKNQVSLWCLVKGFYPSDIAVEWESNGQPENNYKTTPPVLDSDGSFFLYSKLTVDKSRWQQGNVFSCSVMHEALHNHYTQKSLSLSPGK
heavy 2: B1 heavy 2 with A327K, S359C, K361E, K362E, T371S, L373A, K404D, Y412V
light: [not shown - about 100 residues][not shown - about 120 residues]

How the values were obtained:
[1] = target: T1, IL2Rs (IL2Rgamma/IL2Rbeta) on …; assay: cell-based or functional assay
[2] = target: T1, IL2Rs (IL2Rgamma/IL2Rbeta) on …; assay: cell-based or functional assay; remark: listed apart in the source

Binder | pSTAT5 on LAG3+ CD8+ T cells compared to LAG3- CD8+ T cells [1] | pSTAT5 EC50 [2] | pSTAT5 EMAX (Mean Fluorescence Intensity) [2]
B1 | > 1000 fold | 0.67 nM | 61000 Mean Fluorescence Intensity
B2 | – | 0.82 nM | 63000 Mean Fluorescence Intensity
B3 | – | 1.63 nM | 61000 Mean Fluorescence Intensity
B4 | – | 0.72 nM | 62000 Mean Fluorescence Intensity
B5 | – | 0.83 nM | 60000 Mean Fluorescence Intensity
B6 | – | 0.54 nM | 62000 Mean Fluorescence Intensity
